Reference: the RNAGym collection of RNA variant scans (doi:10.1093/nar/gkz1192)
Read counts are not given, so values of variants with three or more changes are uncertain.

B1: CPEB3 Ribozyme (parent)
chain: UAACAGGGGGCCACAGCAGAAGCGUUCACGUCGCAGCCCCUGUCAGAUUCUGGUGAAUCUGCGAAUUCUGCUGUAUAUCUC

Variants of: B1
Experiment: self-cleavage, relative activity (ratio to wild type); higher = more cleavage; in vitro, sequencing
How it was run: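 For each CPEB3 ribozyme variant, relative activity is its cleaved/total read fraction divided by the unmutated ribozyme's. Barcoded error-prone PCR libraries were transcribed by T7 RNA polymerase (5 hours, 37°C) and held in DNase I for 15 min before an EDTA stop, with cleavage occurring throughout. Template-switching reverse transcription and Illumina sequencing were used to read the RNAs. A 5-read minimum applied, and results are the mean of three batches.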

Variant | self-cleavage
UAACAGGGGGCUACAGCAGAAGCGUCCACGUCGCAGCCCCUGCCAGAUCCUGGUGAAUCUGCGAAUUCUGCUGUAUAUCCC [C12U U26C U43C U49C U80C] | 0.24
UAACAGGGGGCUACAGCAGAAGCGUUCACGUCGCAGCCCCUGUCAGAUUCUGGCGAAUCUGCGAAUUCUGCUGUAUGUCUC [C12U U54C A77G] | 1.11
UAACAGGGGGCUACAGCAGAAGCGUACACGUCGCAGCCCCUGUCAGAUUCUGGUGAAUCUGCGAAUCCCGCUGUAUAUCUC [C12U U26A U67C U69C] | 0.24
UAACAGGGGGCUACAGCAGAAGCGCUCACAUCGCAGCCCCCGUCAGAUUCUGGUGAAUCUGCGGAUUCUGCUGUAUAUCUC [C12U U25C G30A U41C A64G] | 0.11
UAACAGGGGGCUACAGCAGAAGCGUUCACGUCGCAGCCCCUGUCAGAUUCUGGUGAAUCUGCGAAUACUGGUGUAUAUCUC [C12U U67A C71G] | 0.51
UAACAGGGGGCCCCAGCAGAAGCGUUCACGUCGCUGCCCCUGUCAGAUUCUGGUGAAUCUGCGAAUUCCGCUGCAUAUCUC [A13C A35U U69C U74C] | 0.16
UAACAGGGGGCUACAGCAGAAGCGUCCACGUCGCAGCCCCUGUCAGAUUCUGGUGAAUCUGCGAAUUCUGCUGUAUAUCCC [C12U U26C U80C] | 0.77
UAACAGGGGGCUACAGCAGAAGCGUUCACGUCGCAGCCCCUGUCAGAUUCUGGUGAACCUGCGAGUUCUGCUGUGUAUCUC [C12U U58C A65G A75G] | 0.51
UAACAGGGGGCCCCAGCAGAAGCGUUCGCGUCGCAGUCCCUGUCAGAUUCUGGUGAAUCUGCGAACACUGCUGUAUAUCUC [A13C A28G C37U U66C U67A] | 0.42
UAACAGGGGGCCCCGGCAGAAGCGUUCACGUCACAGCCCCUGUCAGAUUCUGGUGAGUCUGCGAAUUCUGCUGUAUAUCUC [A13C A15G G33A A57G] | 0.24
UAACAGGGGGCUACAGCAGAAGCGUUCACGUUGCUGCCCCGGUCAGAUUCUGGUGAACCUGCGAACUCCGCUGUAUAUCUC [C12U C32U A35U U41G U58C U66C U69C] | 0.07
UAACAGGGGGCUACAGCAGAAGCGCUCACGUCGCAGCCCCAGUCAGAUUCAGGUGAAUCUGCGAAUUCUGCCGUAUAUCUC [C12U U25C U41A U51A U72C] | 0.08
UAACAGGGGGCUACAGGAGAGGCGUUCACGUCGCAGCCCCUGUCAGAUUCUGGUGAAUCUGCGGAUCCUGCUGUAUAUCUC [C12U C17G A21G A64G U67C] | 0.18
UAACAGGGGGCUACAGCAGAAGCGUUCACGUCGCAGCCCCUGACAGAUUCUGGUGAAUCUGCGAAUUCUGCCGUAUAUCUC [C12U U43A U72C] | 1.21
UAACAGGGGGCUACAGCAGAAGCGUUCACUUCGCAGCCCCUGUCAGGUUCUGGUGAAUCUGCGAAUUCUGCCGAAUAUCUC [C12U G30U A47G U72C U74A] | 0.19
UAACAGGGGGCCCCAGCAGAAGCGUUCACGUCGCUGCCCCUGUCAGAUUCUGGUGAAUCAGCGAAUUCAGCUGUAUAUCUC [A13C A35U U60A U69A] | 0.13
UAACAGGGGGCCCCAGCGGUAGCGUUCACGUCGCAGCCCCUGUCGGAUUCUGGUGAAUCUGCGAAUUCUGCUGUAUAUCUC [A13C A18G A20U A45G] | 0.35

Variant | self-cleavage
UAACAGGGGGCUACAGCAGAAGCGUACAGGUCGCAGCCCCUGUCAGAUUCUGGCGAACCUGCGAACUCUGCUGUAUAUCUC [C12U U26A C29G U54C U58C U66C] | 0.11
UAACAGGGGGCCCCAGCUGAAGCGUUCACGUCGCAGCCCCCGUCAGAUUCUGGUGAAUCUGCGAAUUCUGCUGUAUAUCUC [A13C A18U U41C] | 0.44
UAACAGGGGGCUACAGCAGAAGCGUUCACGUCGCAGCCCCUGACAGAUUCUGGUGAAUCUGCGAAUUCUGCUGUAAAUCUC [C12U U43A U76A] | 1.27
UAACAGGGGGCCCCAGCAGGAGCGUUCACGUCGCAGCCCCUGUCAGAUUCUGGUGAAUCUGCGAAUUCUGCUGUACAUCUU [A13C A20G U76C C81U] | 0.84
UAACAGGGGGCUACAGCAGAAGCGUUCACGUCGCAGCCCCUGUCAGAUUCCGGUGAAUCUGCGAGUUCUGCUGUAUAUCUC [C12U U51C A65G] | 0.88
UAACAGGGGGCUACAGCAGAAGGGUUCACGUCGCUGCCCCUGUCAGAUUCUGGUGAUUCUGCGAAUUCUGCAGUAUAUCUC [C12U C23G A35U A57U U72A] | 0.08
UAACAGGGGGCCCCAGCAGAAGCGUUCACGUCGCUGCCCCUGUCAGGUUCUGGUGAAUCUGCGAAUUCUGCUGUAUAUCUC [A13C A35U A47G] | 0.19
UAACAGGGGGCUACAGCAGAAGCGUUCACGUCGCAGCCCCUGUCAGAUUCUGGUGAAUCUGCGAAUUCUGCGGUAUUUCUC [C12U U72G A77U] | 1.32
UAACAGGGGGCUACAACAGAAGCGUUCACGUCGCGGCCCCUGCCAGAUUCUGGUGAAUCAGCGAACUCUGCUGUAUAUCUC [C12U G16A A35G U43C U60A U66C] | 0.11
UAACAGGGGGCCCCAGCGGGAGCGUUCGCGUCGCAGCCCCUGUCAGACUCUGGUGAAUCUGCGAAUUCUGCUGUAUAUCUC [A13C A18G A20G A28G U48C] | 0
UAACAGGGGGCUACAGUGGAGGCGUUCACGUCGCAGCCCCUGUCAGAUUCUGGUGGAUCGGCGGAUUCUGCUGUAUAUCUC [C12U C17U A18G A21G A56G U60G A64G] | 0.04
UAACAGGGGGCUACAGCAGAAGCGUUCACGUCGCAGACCCUGUCAGGUUCUGGUGAAUCUGCGAAUUCUGCUGUAUAUCUC [C12U C37A A47G] | 0.34
UAACAGGGGGCUACAGCAGAAGCGUCCACGUCGCAGUCCCUGUCAGAUUCUGGUGAAUCUGCGAAUUCUGCUGUAUACCUC [C12U U26C C37U U78C] | 0.15
UAACAGGGGGCUACAGCAGAAGCGUCCACGUUGCAGACCCUGUCAGAUCCUGGUGAAUCUGCGAGUUCUGCUUUAUAUCUC [C12U U26C C32U C37A U49C A65G G73U] | 0.04
UAACAGGGGGCCCCUGCAGAAGCGUCCACGUCGCAGCCCCUGUCAGACUCUGGUGAAUCUGCGAACUCUGCUGUAUAUCUC [A13C A15U U26C U48C U66C] | 0.22
UAACAGGGGGCCCCAGCAGGAGCGUUCACGUCGCAGCCCCUGUCAGAUUCUGGUGAAUCCGCGAAUUCUGCUGCAUAUCUC [A13C A20G U60C U74C] | 0.38
UAACAGGGGGCUACAGCAGAAGCGCUCACGUCGCAGCCCCCGUCAGAUUCCGGUGAAUCUGCGAAUUCUGCUGUAUAUCUC [C12U U25C U41C U51C] | 0.11
